{"source": "the supplement of paper PMC3334620", "note": "Whole data set: some 33,000 sequences, median “E-score (-0.5 to 0.5)” near -0.041, cut for the highest 2% near 0.37. This is one part of the list.", "data": [{"biological_target": "T1, Ecm22 (UniProt Q05958)", "T1 sequence": "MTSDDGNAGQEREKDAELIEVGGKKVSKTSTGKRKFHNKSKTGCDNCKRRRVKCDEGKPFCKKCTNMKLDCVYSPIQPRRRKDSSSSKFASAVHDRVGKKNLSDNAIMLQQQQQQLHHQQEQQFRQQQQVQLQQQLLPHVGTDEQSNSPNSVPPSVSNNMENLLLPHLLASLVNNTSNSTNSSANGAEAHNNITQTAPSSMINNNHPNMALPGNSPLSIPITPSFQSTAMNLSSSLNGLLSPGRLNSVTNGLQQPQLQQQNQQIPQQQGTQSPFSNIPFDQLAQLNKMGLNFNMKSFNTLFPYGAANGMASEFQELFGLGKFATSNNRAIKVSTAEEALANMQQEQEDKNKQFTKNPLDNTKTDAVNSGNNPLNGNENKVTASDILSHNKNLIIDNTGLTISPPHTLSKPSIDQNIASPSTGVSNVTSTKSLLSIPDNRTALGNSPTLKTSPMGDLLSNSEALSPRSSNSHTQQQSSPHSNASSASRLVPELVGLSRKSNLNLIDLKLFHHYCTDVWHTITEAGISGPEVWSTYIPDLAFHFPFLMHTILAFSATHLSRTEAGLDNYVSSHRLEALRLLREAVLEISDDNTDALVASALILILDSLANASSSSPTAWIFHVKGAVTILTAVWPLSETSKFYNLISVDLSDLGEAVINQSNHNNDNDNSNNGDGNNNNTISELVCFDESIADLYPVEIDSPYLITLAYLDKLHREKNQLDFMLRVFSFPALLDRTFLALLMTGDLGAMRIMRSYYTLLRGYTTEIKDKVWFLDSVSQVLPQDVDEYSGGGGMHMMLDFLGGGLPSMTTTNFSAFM", "experiment": "PBM E-score (8-mer binding enrichment) (E-score (-0.5 to 0.5)); higher = stronger / more preferred TF binding; most listed sequences are background and not binding sites", "details": "protein concentration: 200 nM; construct: GST-full length", "experimental": "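Universal 'all 10-mer' protein binding microarrays (Agilent AMADID 015681) probed with GST-tagged S. cerevisiae TFs (full-length or DBD) made by in vitro transcription/translation (PURExpress), about 100-200 nM. Bound TF was detected with fluorescent anti-GST. Each ungapped 8-mer (which stands for itself and its reverse complement) is scored by the PBM enrichment score (E-score), a modified Wilcoxon-Mann-Whitney statistic from -0.5 to +0.5, computed with the Universal PBM Analysis Suite. Scale: above 0.35 generally sequence-specific binding.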", "values": [{"sequence": "AAGGCATC", "PBM E-score": -0.0118}, {"sequence": "CTAAAGCA", "PBM E-score": -0.0375}, {"sequence": "ATCAGGTG", "PBM E-score": -0.178}, {"sequence": "ATGTATCG", "PBM E-score": 0.254}, {"sequence": "GTGTAAAC", "PBM E-score": 0.111}, {"sequence": "AAGCCCAG", "PBM E-score": -0.109}, {"sequence": "ATAGCCTG", "PBM E-score": -0.281}, {"sequence": "AAGGCAAT", "PBM E-score": -0.0603}, {"sequence": "GGTGTTGA", "PBM E-score": -0.168}, {"sequence": "CGCCCCGC", "PBM E-score": -0.0353}, {"sequence": "GACTGCAA", "PBM E-score": -0.268}, {"sequence": "ACACATCC", "PBM E-score": -0.0188}, {"sequence": "ACATAGAC", "PBM E-score": -0.117}, {"sequence": "TCCAATAA", "PBM E-score": -0.0272}, {"sequence": "AACGTACT", "PBM E-score": 0.206}, {"sequence": "AAAGTGCT", "PBM E-score": -0.284}, {"sequence": "AAAAGGCA", "PBM E-score": -0.201}, {"sequence": "ATACTGGA", "PBM E-score": 0.00166}, {"sequence": "AGCACCGA", "PBM E-score": 0.11}, {"sequence": "AAAGGATT", "PBM E-score": -0.164}, {"sequence": "CAACCACA", "PBM E-score": -0.0795}, {"sequence": "CTGACAAA", "PBM E-score": 0.0148}, {"sequence": "ATTAAGAC", "PBM E-score": -0.0694}, {"sequence": "CCTGATTC", "PBM E-score": -0.132}, {"sequence": "CGCATAAA", "PBM E-score": 0.164}, {"sequence": "ATATCACG", "PBM E-score": 0.0459}, {"sequence": "GCACTCAA", "PBM E-score": -0.15}, {"sequence": "ACCCCGGA", "PBM E-score": -0.136}, {"sequence": "TGTACACA", "PBM E-score": 0.0209}, {"sequence": "GCACGTGA", "PBM E-score": -0.0463}, {"sequence": "AACTTAAC", "PBM E-score": 0.109}, {"sequence": "ACTACTTG", "PBM E-score": -0.187}, {"sequence": "ATTTCTAC", "PBM E-score": 0.139}, {"sequence": "ATACCGTG", "PBM E-score": -0.00541}, {"sequence": "CAATCCCG", "PBM E-score": -0.012}, {"sequence": "GAAGCACA", "PBM E-score": -0.0546}, {"sequence": "CCCCGGGG", "PBM E-score": 0.129}, {"sequence": "GGTTGAAC", "PBM E-score": 0.0859}, {"sequence": "ACCTGGGC", "PBM E-score": -0.195}, {"sequence": "AAGAATCA", "PBM E-score": -0.299}, {"sequence": "CATTAACG", "PBM E-score": 0.182}, {"sequence": "ACACATGT", "PBM E-score": 0.00831}, {"sequence": "GCGTGTCC", "PBM E-score": 0.104}, {"sequence": "ATCCGCTA", "PBM E-score": 0.0928}, {"sequence": "CATTCAGA", "PBM E-score": -0.297}, {"sequence": "ACGGAGCG", "PBM E-score": 0.308}, {"sequence": "AACAGAAT", "PBM E-score": -0.181}, {"sequence": "GTATTCAA", "PBM E-score": 0.0186}, {"sequence": "GAAAGAGA", "PBM E-score": -0.0205}, {"sequence": "CTTCTAGA", "PBM E-score": -0.161}, {"sequence": "ACCGTCCC", "PBM E-score": -0.258}, {"sequence": "ATCCGCTG", "PBM E-score": 0.0117}, {"sequence": "AACTTCCG", "PBM E-score": 0.133}, {"sequence": "ACTTTAAT", "PBM E-score": -0.144}, {"sequence": "ATGCAGTA", "PBM E-score": 0.0758}, {"sequence": "ACTCGTGA", "PBM E-score": 0.135}, {"sequence": "AACGTTCG", "PBM E-score": 0.217}, {"sequence": "CGTCCCGC", "PBM E-score": -0.104}, {"sequence": "AAGATAGC", "PBM E-score": -0.149}, {"sequence": "AAGCTTTG", "PBM E-score": -0.0752}, {"sequence": "TCAGGTCA", "PBM E-score": -0.287}, {"sequence": "ATGTGAGC", "PBM E-score": -0.111}, {"sequence": "CTCGGCAG", "PBM E-score": -0.043}, {"sequence": "AAGTGCGT", "PBM E-score": -0.0022}, {"sequence": "CCGGGTGA", "PBM E-score": -0.235}, {"sequence": "AAGCACCT", "PBM E-score": -0.264}, {"sequence": "GCATAAAA", "PBM E-score": 0.0649}, {"sequence": "CACCTGCG", "PBM E-score": -0.22}, {"sequence": "ATATTGGC", "PBM E-score": -0.123}, {"sequence": "TACATGAA", "PBM E-score": 0.0426}, {"sequence": "CACCTCGG", "PBM E-score": 0.113}, {"sequence": "ACTGGACT", "PBM E-score": -0.271}, {"sequence": "GGAACTCC", "PBM E-score": -0.0353}, {"sequence": "AGGACATA", "PBM E-score": -0.124}, {"sequence": "GTATCCTA", "PBM E-score": -0.0543}, {"sequence": "GACATAAA", "PBM E-score": 0.0336}, {"sequence": "GTCCTGTA", "PBM E-score": -0.0746}, {"sequence": "CACAGACG", "PBM E-score": -0.0539}, {"sequence": "GTAAATAA", "PBM E-score": 0.127}, {"sequence": "TAGTTTCA", "PBM E-score": -0.0809}, {"sequence": "GACAGTCA", "PBM E-score": -0.0371}, {"sequence": "AGTAGCTC", "PBM E-score": -0.0697}, {"sequence": "ATATGCCG", "PBM E-score": 0.181}, {"sequence": "GAGAAGAA", "PBM E-score": 0.0852}, {"sequence": "TGCCAGAA", "PBM E-score": -0.123}, {"sequence": "AGCGATTG", "PBM E-score": 0.0712}]}]}
